According to PubChem BioAssay AID743279 (National Center for Advancing Translational Sciences (NCATS), 2014):
The whole screen tested about 360,000 compounds, of which about 17,000 (4.7%) were called active. The inconclusive results got no clear call from the source; some entries with a clear call stand among them for comparison. Rule as the data show it: active = activity change below about -50%; inconclusive = mostly about -30% to -49%; inactive = weaker than that.

Assay: qHTS for Inhibitors of Inflammasome Signaling: IL-1-beta AlphaLISA Primary Screen
Conditions: THP-1 LPS/ATP IL-1B secretion, 16 h; at 57.5 µM, stronger effect = lower value
Method in brief: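 THP-1 cells pretreated 1 hr with compounds (up to 57.5 uM final), then stimulated with LPS (250 ng/mL final) plus ATP (1.25 mM final); secreted IL-1B measured by AlphaLISA after 16 hr, decreased signal indicating inhibition.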
% is scaled to controls: 0 for no effect and ±100 for the full control effect.

Row | SMILES | activity change
1 | COc1ccc(-c2cc(C(F)(F)F)n3nc(C(=O)NCCCn4ccnc4)cc3n2)cc1 | active: -59.3%
2 | COc1ccc(NC(=O)/C(=C\c2ccccc2)NC(=O)c2ccco2)cc1 | inconclusive: -33.3%
3 | O=C(Cc1cc(=O)[nH][nH]1)N/N=C/c1c(Cl)cccc1Cl | inconclusive: -39.9%
4 | COCCCNC(=O)CCCn1c(=O)c2ccccc2n(Cc2cccc([N+](=O)[O-])c2)c1=O | inactive: -0.202%
5 | CCN(CC(=O)NCc1ccc(Cl)cc1)C(=O)CCc1ccccc1O | inconclusive: -38.4%
6 | CC1C(=O)C(C)C(c2cc(Cl)ccc2O)NC1c1cc(Cl)ccc1O (centres undefined) | active: -75.5%
7 | COc1cccc(OC)c1C(=O)NCCNc1nc2cc(C)cc(C)c2cc1C#N | inconclusive: -37.6%
8 | COCCN1CCN(Cc2cn(C)nc2-c2ccc(Oc3ccccc3)cc2)CC1 | inconclusive: -35.6%
9 | CS(=O)(=O)N(Cc1ccccc1)c1ccc(C(=O)N2CCN(c3cccc(Cl)c3)CC2)cc1 | inconclusive: -40.3%
10 | N#C/C(=C\c1cccc(Br)c1)C(=O)N1CCCCC1 | inconclusive: -41.2%
11 | O=c1[nH]c(=O)n(Cc2ccco2)c2c1C(C(F)(F)F)(C(F)(F)F)N=C(CCc1ccccc1)N2 | inconclusive: -40.1%
12 | O=C(OCc1cn([C@@H]2C[C@H](c3ccc(Cl)cc3)N(C(=O)C3CCCCC3)C[C@H]2O)nn1)c1ccccc1 | inactive: -20%
13 | CCCc1cc(=O)oc2cc(OCC(=O)NCCCn3ccnc3)c(Cl)cc12 | inconclusive: -36.5%
14 | CCOC(=O)C1=C(COC(=O)c2cc([N+](=O)[O-])ccc2Cl)NC(=O)NC1C (centres undefined) | inconclusive: -41.1%
15 | CNC(=S)NCc1ccc2[nH]c3c(c2c1)CCCC3 | inconclusive: -37.7%
16 | CCN(CC)CCNC(=O)c1cc(-c2ccc(Br)s2)nc2ccccc12 | inconclusive: -30.3%
17 | CCOC(=O)c1c(NC(=O)c2ccc(S(=O)(=O)N3CCOCC3)cc2)sc2c1CCN(C(C)C)C2 | inconclusive: -39.7%
18 | Cc1ccc(S(=O)(=O)N2CCN(C(=O)CCc3nc4ccccc4c(=O)[nH]3)CC2)c(C)c1 | inconclusive: -40.3%
19 | Cc1c([N+](=O)[O-])cc(C(=O)Oc2ccc(Br)cc2C(=S)N2CCCCC2)cc1[N+](=O)[O-] | inconclusive: -30.2%
20 | CCCC(=O)N1CCN(c2ccc(NC(=O)c3ccc(Br)o3)cc2)CC1 | inconclusive: -37.7%
21 | Cc1nn(-c2ccccc2)c(Cl)c1C1C(C#N)=C(N)Oc2c1c(C)nn2-c1ccccc1 (centres undefined) | inactive: 0%

Row | SMILES | activity change
22 | CSc1ccccc1NC(=O)Nc1cccc(Cl)c1C | inconclusive: -33.8%
23 | O=C(NC1CCCCC1)NC1CC2CCCC(C1)N2C1CCCC1 (centres undefined) | inconclusive: -31.8%
24 | COc1ccccc1N1CCN(C(=O)c2ccc3c(=O)n(Cc4ccc5c(c4)OCO5)c(=O)[nH]c3c2)CC1 | inconclusive: -31.9%
25 | CCSC1=C(C#N)C(c2ccccc2Cl)CC(=O)N1 (centres undefined) | inconclusive: -34.3%
26 | COc1ccc(NC(=O)c2cc(S(=O)(=O)NCC3COc4ccccc4O3)ccc2F)cc1 (centres undefined) | inconclusive: -38.5%
27 | O=C1/C(=C/c2cccc(O)c2)SC(=S)N1CC1CCCO1 (centres undefined) | inconclusive: -34.8%
28 | Cn1cccc1Cc1nnc(SCC(=O)Nc2nccs2)n1CCc1ccccc1 | inconclusive: -31.5%
29 | CCN1C(=O)[C@H]2[C@@H](c3ccc(-c4ccccc4)cc3)N[C@@](Cc3ccccc3)(C(=O)OC)[C@H]2C1=O | active: -53.3%
30 | C=CCN(CC=C)Cc1cc(=O)oc2cc(C)c(Cl)cc12 | inactive: 12.4%
31 | CC(=O)Nc1ccc(S(=O)(=O)N(C)CC(=O)OCC(=O)N2CCCCC2)cc1 | inconclusive: -41%
32 | Cc1nnc(NC(=O)c2ccc3ccccc3c2)o1 | active: -57.3%
33 | Cc1ccccc1C(=O)Nc1ccc(C(=O)NNC(=O)CCCOc2ccc(Cl)cc2Cl)cc1 | inactive: -12.5%
34 | CCCC(=O)Nc1ccccc1Sc1ncnc2scc(-c3ccccc3)c12 | active: -76.9%
35 | Cc1[nH]c2ccccc2c1/C=N/Nc1ccc([N+](=O)[O-])cc1 | inconclusive: -31.9%
36 | Cc1cc(C)c2[nH]c(=O)c(C(c3nnnn3CC3CCCO3)N3CCCC(C)C3)cc2c1 (centres undefined) | inconclusive: -42.5%
37 | CCNCCC(=O)N1c2ccccc2Sc2ccc(NC(=O)OCC)cc21 | inconclusive: -40.7%
38 | CC(C)(C)NC(=O)CN1CCN(C(=O)CCl)CC1 | active: -78.6%
39 | COc1cc(NC(=O)CCC(=O)c2cccs2)cc(OC)c1 | inactive
40 | O=C(COC(=O)Cc1ccc(Cl)cc1)NCc1ccco1 | inactive: 10.4%
41 | FC(F)(F)c1cnc(NNC(=S)Nc2ccccc2)c(Cl)c1 | inconclusive: -37.3%
42 | COc1ccc(CCN2C(=O)C(Oc3ccccc3C)C2c2ccc3c(c2)OCO3)cc1 (centres undefined) | inconclusive: -30.6%

Row | SMILES | activity change
43 | CC(=O)Nc1ccc(NC(=O)COC(=O)/C(=C/c2ccccc2)n2nnnc2C)cc1 | active: -75.7%
44 | O=C(Cc1cccs1)NCc1cc(Cl)cc(Cl)c1 | inconclusive: -44.1%
45 | COc1ccc(-c2cc(C(=O)O)c(C)o2)cc1OC | inactive: -1.39%
46 | O=C(NCc1nc2ccccc2[nH]1)c1c(F)c(F)c(F)c(F)c1F | active: -78.3%
47 | CCOC(=O)[C@]12CCC=C1N(Cc1cccc3ccccc13)C(=O)[C@H](CC(=O)NCCc1ccccc1OC)C2 | inconclusive: -44.4%
48 | CC(=O)CSc1nnc(Cc2ccc3c(c2)OCO3)o1 | inactive: 8.02%
49 | Cc1cc(C(=O)NNC(=O)c2nn(C)c(=O)c3ccccc23)c(C)o1 | inconclusive: -37.2%
50 | COc1ccc(NC(=O)C2(C)Cc3c(-c4ccc(N(C)C)cc4)ccnc3O2)cn1 (centres undefined) | inactive: -5.73%
51 | O=C1C2CC=CCC2C(=O)N1c1ccc(NCCc2ccc(O)cc2)c([N+](=O)[O-])c1 (centres undefined) | active: -82.8%
52 | CC1CCCN(S(=O)(=O)c2ccc(NC(=O)C3CC(=O)N(c4ccccc4)C3)cc2)C1 (centres undefined) | inconclusive: -38.4%
53 | O=C(c1ccc(F)cc1)C1CCN(C(=O)c2c(F)cccc2F)CC1 | inactive: -25.3%
54 | c1ccc(CN2CCN(CCOCCOc3ccc4c(c3)CCC4)CC2)cc1 | active: -59.5%
55 | CSc1ncccc1C(=O)Nc1cccc(S(=O)(=O)N2CCCCCC2)c1 | inactive: -23.3%
56 | COC(=O)CSc1nnc(-c2ccccc2OC)o1 | inactive: 17.2%
57 | Cn1nc(C(F)(F)F)c2cc(NC(=O)OCc3ccc(C(C)(C)C)cc3)sc21 | active: -87.1%
58 | COc1ccc(OC)c(C(c2nnnn2CCC(C)C)N2CCN(C(=O)c3ccco3)CC2)c1 (centres undefined) | inconclusive: -47.5%
59 | Cc1ccc2c(c1)[C@H]1[C@H](CO2)[C@H](c2ccccc2)[C@]2(C)C(=O)N(Cc3ccc(F)cc3)CC(=O)N12 | inconclusive: -39.2%
60 | CCCCN(C)Cc1cc(=O)oc2cc3c(cc12)CCCC3 | inactive: -3.86%
61 | CN(C)S(=O)(=O)Nc1ccc(Oc2ccccc2)cc1 | inconclusive: -43.4%
62 | COc1cc(NC(=O)CSc2nc3[nH]ncc3c(=O)n2-c2ccc(Cl)cc2)cc(OC)c1 | inconclusive: -30.2%
63 | COc1ccc(C2C3=C(CC(C)(C)CC3=O)Oc3ncn(CC(C)C)c(=N)c32)cc1 (centres undefined) | active: -59.9%

Row | SMILES | activity change
64 | CC(NCC1COc2ccccc2O1)C1COc2ccccc2O1 (centres undefined) | inconclusive: -41.4%
65 | COc1ccc(C(=O)Oc2ccc3ccc(=O)oc3c2)cc1 | inactive: -3.25%
66 | Cc1ccc(S(=O)(=O)N(C(=O)c2ccncc2)c2ccc(OC(=O)c3ccncc3)cc2)cc1 | inconclusive: -43%
67 | CCN(CC)C(=O)C1CCCN(c2ccc([N+](=O)[O-])cc2/C=N/NC(=O)c2cccc(Br)c2)C1 (centres undefined) | inconclusive: -46.3%
68 | O=C(N/N=C/C(Cl)=C/c1ccccc1)c1ccccn1 | active: -57.3%
69 | COc1ccc(CN2CCNC(=O)C2CC(=O)NCCCC2CCCC2)c(C)c1C (centres undefined) | inconclusive: -30.5%
70 | O=C(CSc1ccc2nnc(-c3cccc(F)c3)n2n1)NCc1ccco1 | inactive: 6.42%
71 | CCN(CC)C(=O)C1CCN(Cc2ccc(Br)cc2)CC1 | inactive: -9.95%
72 | Cc1ccc(C)c(NC(=O)c2cccc(Oc3ccc([N+](=O)[O-])cc3Cl)c2)c1 | inconclusive: -41.4%
73 | CCn1c(=O)n(CC)c2cc(N3CCCC3)c(NC(=O)c3cccc(C)c3)cc21 | inconclusive: -49.3%
74 | CC1(C)C2CCC(CN=C(N)CSS(=O)(=O)O)C1C2 (centres undefined) | active: -57.5%
75 | Cc1c(Cl)cccc1NC(=O)Cc1cccs1 | inactive: 0%
76 | COc1cc2c(C#N)c(N3CCN(c4ccccc4OC)CC3)nc(N)c2c(N)n1 | inactive: -28%
77 | COc1nc(NC(C)C)nc(N(C#N)CN2C(=O)c3ccccc3S2(=O)=O)n1 | inconclusive: -45.8%
78 | Cc1ccc(C)c(N2CCN(C(=O)Cc3ccc(-n4c(=O)[nH]c5ccsc5c4=O)cc3)CC2)c1 | inconclusive: -44.7%
79 | OCCC1CN(Cc2cc3c(cc2Cl)OCO3)CCN1C1CCCC1 (centres undefined) | inconclusive: -31.4%
80 | c1ccc(-c2nc3ccccn3c2NCc2ccc3c(c2)OCO3)cc1 | inconclusive: -35.3%
81 | CCCOc1ccc(NC(=O)CCC(=O)NC(C)c2ccccc2)cc1 (centres undefined) | inactive: 18.1%
82 | CN(C)c1ccc(Nc2cc(Cl)ncn2)cc1 | inactive: 8.36%
83 | CC1=C(C(=O)N(C(C)C)C(C)C)CC(CC(=O)NC(c2ccccc2)c2ccccc2)C(=O)N1CCC1=CCCCC1 (centres undefined) | inconclusive: -36.1%
84 | COc1ccc(N2CCN(C(=O)COc3ccc4c(C)cc(=O)oc4c3C)CC2)cc1 | inactive: 34.4%
